Screen size: about 310,000 compounds; about 18,000 (5.8%) were called active. The shares of active, inactive and inconclusive entries below differ from those in the screen. The call rests on the fitted dose curve; in most records, active means well fitted inhibition curve with a large enough effect; inconclusive means small, poorly fitted or top-dose-only effect, or another doubt; inactive means no such curve, though single readings can be large or run the other way. Potencies of inconclusive entries are left out as doubtful fits.
Test: Primary qHTS for delayed death inhibitors of the malarial parasite plastid, 48 hour incubation
Settings: P. falciparum luciferase growth in erythrocytes; series mostly up to 28.7 µM; activity change, negative = inhibition: at the top concentration
Summary of the method: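 Firefly luciferase activity from engineered P. falciparum reports growth; inhibitors lower the luminescent signal. Cultures contained 2% hematocrit erythrocytes at 0.1% final parasitemia.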
On the % scale 0 is the no-effect control and ±100 the full control effect; potency means the concentration at half of the fitted maximal effect; tags describe the fitted curve by direction and shape.

SMILES	activity change, negative = inhibition	Potency
Cc1cc(C)c2nc(N)sc2c1	inactive: -27.3%	–
CCOC(=O)c1sc(NC(=O)CN2CCN(c3ccccc3)CC2)nc1C	inactive: 2.24%	–
COc1ccc(Sc2ccc(NC(=O)c3ccccc3Cl)cc2C#N)cc1	inactive: 16.9%	–
Cc1ccc(S(=O)(=O)Nc2ccc3c(c2)nc(CCN2CCCC2)n3C)cc1	–	inconclusive [inhibitor, single point]
COC(=O)/C(C#N)=C/N(C)C	–	active: 2.33 µM
COc1ccc(Cl)cc1NC(=O)CN(C)C1CCCCC1	–	inconclusive [inhibitor, single point]
COc1ccc(C)cc1NCC(=O)Nc1ccc(C(C)(C)C)cc1	–	inconclusive [inhibitor, single point]
COc1ccc(C2CC(c3ccccc3)=NN2C(=O)COC(=O)c2nc3nc(C)cc(C)n3n2)cc1 (stereo not drawn)	–	inconclusive [inhibitor, single point]
CC1(C)CC(=O)C(N=Nc2cccc(S(=O)(=O)N3CCOCC3)c2)=C(O)C1	inactive: 37.7%	–
Cc1ccc(S(=O)(=O)N(Cc2ccc(F)cc2)Cc2ccco2)cc1	–	inconclusive [inhibitor, single point]
CCOC(=O)c1c(C)[nH]c(N=Nc2ccc(OC)cc2)c1C	inactive: 153%	–
Cc1c(Cl)cccc1NS(=O)(=O)c1cccc2nsnc12	inactive: -0.179%	–
O=C(Nc1ccccc1F)c1cc(S(=O)(=O)N2CCOCC2)cs1	–	inconclusive [inhibitor, single point]
CCCc1nnc2c(N(C)S(=O)(=O)c3ccc(C)cc3)nc3ccccc3n12	–	inconclusive [inhibitor, single point]
CC(=O)c1cn(CCOc2ccccc2C)c2ccccc12	–	active: 3.29 µM
CCc1ccccc1NC(=S)/N=C(\N)Nc1nc(C)c2cc(C)ccc2n1	–	active: 2.94 µM
CC(C)c1nc(SCC(=O)NC(=O)NC(C)(C)C)n[nH]1	–	inconclusive [inhibitor, partial curve]
COc1ccc(/C=N/NC(=S)NC2CCS(=O)(=O)C2)cc1OC (stereo not drawn)	–	inconclusive [inhibitor, single point]
CC(=O)Nc1ccc(NC(=O)CSc2nc(N)c(NC(=O)c3ccccc3F)c(=O)[nH]2)cc1	–	inconclusive [inhibitor, single point]
O=C(COc1ccc(N2C(=O)c3ccccc3C2=O)cc1)c1ccccc1	inactive: 18.8%	–
CN(C(=O)CC1C(=O)NCCN1Cc1ccccc1C(F)(F)F)C1CCOCC1 (stereo not drawn)	inactive: 2.7%	–
CCCCOc1ncnc2c1[nH]c1ccc(OCC)cc12	inactive: 32.2%	–
NNC(=S)NCc1cccnc1	inactive: 10.1%	–
COc1ccc(Cc2nc3ccc(C(=O)NCCCSC)cc3o2)cc1OC	inactive: -14.9%	–
COc1ccc(S(=O)(=O)N(CCCN2CCCC2=O)Cc2cc3c(C)cc(C)cc3[nH]c2=O)cc1	–	active: 9.28 µM

SMILES	activity change, negative = inhibition	Potency
CC1=NN(c2ccccc2)C(=O)/C1=C/c1cn(C)c2ccccc12	–	inconclusive [inhibitor, full curve, poor fit]
O=C(C[n+]1ccccc1)Nc1ccc(Oc2ccccc2)cc1	–	active: 6.57 µM
COc1ccccc1-c1c(C)nn2c(N3CCC(C(N)=O)CC3)cc(C)nc12	inactive: -26.7%	–
O=C(Nc1cccc(Cl)c1)c1ccc2c(c1)SC1=NS(=O)(=O)CCN12	–	inconclusive [inhibitor, partial curve, poor fit]
COc1ccc(CN2C(=O)CSC2c2ccncc2)cc1 (stereo not drawn)	–	inconclusive [inhibitor, single point]
CN1CCN(c2nc(-c3ccccc3)nc(-c3ccc(F)cc3)c2C#N)CC1	–	inconclusive [inhibitor, partial curve, poor fit]
O=C(COc1cccc(C(F)(F)F)c1)NCC(c1cccs1)N1CCOCC1 (stereo not drawn)	–	active: 13.1 µM
Cc1ccc(CN2CC(C(=O)NCCC3=CCCCC3)CC2=O)cc1 (stereo not drawn)	–	inconclusive [inhibitor, single point]
CCCCCCn1c(N2CCN(c3ccccc3)CC2)nc2c1c(=O)n(C)c(=O)n2C	–	active: 6.57 µM
S=C1NC2=C(CCC/C2=C\c2ccc(Cl)cc2)C(c2ccc(Cl)cc2)N1 (stereo not drawn)	–	inconclusive [inhibitor, full curve, poor fit]
O=C(c1ccccc1)c1ccccc1C(=O)N1CCN(Cc2ccccc2F)CC1	–	inconclusive [inhibitor, single point]
COc1cccc(CN(C)CC(=O)Nc2sc3c(c2C#N)CCC3)c1	inactive: -7.19%	–
CSc1cccc(NC(=S)N2CCC(N(C)C3CCCC3)CC2)c1	inactive: -7.42%	–
CCCNC(=O)c1ccccc1NC(=O)c1cccc(-n2cnnn2)c1	–	inconclusive [inhibitor, single point]
CCOC(=O)C1(Cc2ccccc2)CCN(Cc2cc(OC)c3c(c2)OCO3)CC1	–	inconclusive [inhibitor, single point]
Cc1cc2c(=O)n(C)c(SCC(=O)Nc3ccccc3C)nc2s1	–	inconclusive [inhibitor, single point]
CC(=O)O[C@H]1C[C@@]2(C)[C@@H](C[C@@H](O)[C@H]3[C@@]4(C)CC[C@@H](O)[C@@H](C)[C@@H]4CC[C@@]32C)/C1=C(\CCC=C(C)C)C(=O)O	–	active: 11.7 µM
COc1cnc(-c2ccccn2)nc1Oc1ccccc1Cl	–	active: 7.38 µM
CCOC(=O)c1c(C)[nH]c(C(=O)CN2C(=O)NC(C)(c3ccc4ccccc4c3)C2=O)c1C (stereo not drawn)	–	inconclusive [inhibitor, single point]
CCOC(=O)N1CCN(C(=O)CSc2nnc(-c3cccc(Cl)c3)o2)CC1	inactive: -11.8%	–
CC1(C)CC(=O)C2=C(C1)Nc1ccccc1[S@]2=O	inactive: 5.21%	–
CCCOc1nc2ccccc2cc1/C=C/C(=O)O	inactive: -27.5%	–
CN1C[C@@H]2C(c3ccc(Cl)nc3)C3(c4ccc(C#N)cc4)CC2(C3)[C@H]1c1ccccc1 (stereo partly drawn)	–	inconclusive [inhibitor, single point]
CC1CCCCN1CCNC(=O)C1CC(=O)N(c2ccc(F)c(Cl)c2)C1 (stereo not drawn)	–	inconclusive [inhibitor, partial curve, poor fit]
CCCCC(=O)Nc1sc2c(c1C(N)=O)CCC2	inactive: 79.7%	–

SMILES	activity change, negative = inhibition	Potency
O=C(N/N=C/C(Br)=C/c1ccccc1)c1ccc([N+](=O)[O-])cc1	inactive: -7.72%	–
CCC(CO)NCc1cc(OC)c(OCC(=O)NCCc2ccccc2)cc1Br (stereo not drawn)	–	inconclusive [inhibitor, partial curve, poor fit]
COc1ccc(/C(O)=C/c2nc3ccc(C(=O)NCCc4cccc(C)c4)cc3[nH]c2=O)cc1OC	–	active: 4.65 µM
Nc1c(S(=O)(=O)c2ccccc2)c2nc3ccccc3nc2n1Cc1ccco1	–	inconclusive [inhibitor, partial curve]
Cn1c(CNC(=O)CNS(=O)(=O)c2ccc(Cl)cc2)cc(=O)n(C)c1=O	inactive: 16.5%	–
COCCCN1CC(=O)N2C(c3cccc(OC)c3)c3[nH]c4ccccc4c3C[C@H]2C1=O (stereo partly drawn)	–	inconclusive [inhibitor, single point]
CCn1c(O)c(N=NC(=O)c2cccs2)c2ccccc21	–	inconclusive [inhibitor, single point]
CCOC(=O)C1CCN(Cc2ccc(C(=O)OC)cc2)CC1	inactive: 15.4%	–
Cn1ncc(Br)c1NC(=O)c1cc(Cl)cc(Cl)c1	–	inconclusive [inhibitor, partial curve, poor fit]
CCC(C)c1ccccc1NC(=O)COC(=O)c1ccc2[nH]c3c(c2c1)CCCC3 (stereo not drawn)	–	inconclusive [inhibitor, single point]
Cn1c(=O)c2c(-c3ccccc3)n(-c3ccccc3O)cc2n(C)c1=O	–	inconclusive [inhibitor, partial curve, poor fit]
O=C(OCC(=O)N1CCCc2ccccc21)c1ccccc1NCCO	–	inconclusive [inhibitor, single point]
O=C(CS(=O)(=O)c1ccccc1)N1CCCCC1	inactive: 10.3%	–
Cn1cc(CCNCc2cn[nH]c2-c2ccc(-c3ccccc3)cc2)cn1	–	inconclusive [inhibitor, partial curve, poor fit]
CN1C(=O)C(=Cc2sc(=O)n(-c3ccccc3)c2N(C)C)C(=O)N(C)C1=O	–	inconclusive [inhibitor, single point]
COC(=O)c1cnn(-c2ccccc2)c1C(OC)OC	inactive: 0.558%	–
CC(OC(=O)c1ccc(NC(=O)CC#N)cc1)C(=O)NCCC1=CCCCC1 (stereo not drawn)	–	active: 9.28 µM
CCOc1ccccc1OCCCCCc1c(C)n[nH]c1C	–	inconclusive [inhibitor, partial curve, poor fit]
COC(=O)[C@@]12CCCN1[C@H](c1ccc(-c3ccc(OC)cc3)c(OC)c1)[C@H]1C(=O)N(C)C(=O)[C@H]12	–	active: 8.28 µM
CCOC(=O)c1sc(NC(=O)Nc2ccc(Cl)cc2)cc1C	–	active: 4.15 µM
COc1ccc2c(c1)O[C@H](c1ccc3c(c1)OCO3)[C@@H](OC(=O)N[C@H](C)C1CCCCC1)C2=O	–	inconclusive [inhibitor, single point]
Cc1oc(-c2ccccc2F)nc1CS(=O)(=O)CC(=O)NCCCN1CC(C)CC(C)C1 (stereo not drawn)	–	inconclusive [inhibitor, single point]
CC1=CC(=C(C#N)C#N)C=C(C)N1CCN1CCN(C(=O)Nc2ccc(Cl)c(Cl)c2)CC1	–	inconclusive [inhibitor, partial curve]
